The values below come from publication PMC11398866.

Chains of the proteins cited; added tags and fusions are not shown.
UniProt Q04207: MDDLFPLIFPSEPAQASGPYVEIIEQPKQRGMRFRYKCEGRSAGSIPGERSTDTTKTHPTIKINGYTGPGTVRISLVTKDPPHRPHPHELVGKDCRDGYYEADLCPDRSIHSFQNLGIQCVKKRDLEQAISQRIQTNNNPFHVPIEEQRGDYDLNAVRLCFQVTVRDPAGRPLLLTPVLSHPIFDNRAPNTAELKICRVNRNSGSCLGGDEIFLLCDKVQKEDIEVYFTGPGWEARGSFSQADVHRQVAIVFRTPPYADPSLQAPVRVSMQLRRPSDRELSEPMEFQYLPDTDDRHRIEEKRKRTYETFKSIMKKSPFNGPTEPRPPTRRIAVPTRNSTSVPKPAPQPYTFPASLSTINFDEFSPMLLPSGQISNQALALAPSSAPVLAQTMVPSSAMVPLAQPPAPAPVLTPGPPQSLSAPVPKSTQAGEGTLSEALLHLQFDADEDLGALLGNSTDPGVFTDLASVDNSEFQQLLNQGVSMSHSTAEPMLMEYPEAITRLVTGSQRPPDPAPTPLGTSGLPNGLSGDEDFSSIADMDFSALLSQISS
UniProt P22366: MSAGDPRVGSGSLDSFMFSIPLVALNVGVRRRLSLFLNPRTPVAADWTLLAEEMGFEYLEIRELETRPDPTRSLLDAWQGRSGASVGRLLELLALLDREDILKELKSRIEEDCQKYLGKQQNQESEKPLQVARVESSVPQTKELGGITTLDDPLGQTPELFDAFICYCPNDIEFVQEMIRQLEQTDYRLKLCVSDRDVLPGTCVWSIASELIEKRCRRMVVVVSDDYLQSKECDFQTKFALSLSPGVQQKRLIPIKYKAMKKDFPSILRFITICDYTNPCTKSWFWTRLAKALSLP

Where two headings read alike, the source gives them in different places. No constants are given. Whether binding was seen depends on the method and setting. Binding seen in cells or lysates may run through a third protein. Some binding calls cover weakened binding; strength is not graded here.

What all share (experiment): co-IP; endogenous proteins; mouse BMDMs (WT and Vangl2-deficient) stimulated with LPS (100 ng/ml) for the indicated times; lysates immunoprecipitated with anti-p65 or anti-Vangl2 antibody or control IgG, protein A/G beads, immunoblot
A general note: Immunoblotting shows a protein as a band on a membrane.

Assay [1] addresses T1, Vangl2, endogenous in mouse bone marrow-derived macrophages (mouse (endogenous in BMDMs)) (UniProt Q91ZD4).
T1 sequence: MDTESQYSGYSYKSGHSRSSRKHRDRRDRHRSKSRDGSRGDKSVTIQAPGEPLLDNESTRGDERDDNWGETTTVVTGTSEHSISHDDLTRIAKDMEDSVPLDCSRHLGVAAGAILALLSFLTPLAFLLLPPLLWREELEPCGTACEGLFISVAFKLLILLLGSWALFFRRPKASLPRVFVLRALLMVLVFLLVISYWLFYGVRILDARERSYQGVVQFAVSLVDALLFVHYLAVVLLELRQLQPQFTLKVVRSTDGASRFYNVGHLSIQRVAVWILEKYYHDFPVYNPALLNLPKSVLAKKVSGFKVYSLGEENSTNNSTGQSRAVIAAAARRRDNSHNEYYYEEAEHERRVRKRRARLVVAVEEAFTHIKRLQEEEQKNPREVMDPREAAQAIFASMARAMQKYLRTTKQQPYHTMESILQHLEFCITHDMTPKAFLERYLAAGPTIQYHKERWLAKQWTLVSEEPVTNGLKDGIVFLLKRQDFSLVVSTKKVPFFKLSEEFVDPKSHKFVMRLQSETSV

The target in assay [2] is p65, endogenous in mouse bone marrow-derived macrophages (mouse (endogenous in BMDMs)) (UniProt Q04207).
In assay [3] the target is T1, Vangl2, endogenous in mouse bone marrow-derived macrophages (mouse (endogenous in BMDMs)). This is another data set of the same source.

For “MyD88, endogenous in mouse bone marrow-derived macrophages (from UniProt P22366 1-296)”, in assay [1], the binding entry is on record as “no binding”.

B1: Vangl2, endogenous in mouse bone marrow-derived macrophages (protein, UniProt Q91ZD4 1-521)
chain: MDTESQYSGYSYKSGHSRSSRKHRDRRDRHRSKSRDGSRGDKSVTIQAPGEPLLDNESTRGDERDDNWGETTTVVTGTSEHSISHDDLTRIAKDMEDSVPLDCSRHLGVAAGAILALLSFLTPLAFLLLPPLLWREELEPCGTACEGLFISVAFKLLILLLGSWALFFRRPKASLPRVFVLRALLMVLVFLLVISYWLFYGVRILDARERSYQGVVQFAVSLVDALLFVHYLAVVLLELRQLQPQFTLKVVRSTDGASRFYNVGHLSIQRVAVWILEKYYHDFPVYNPALLNLPKSVLAKKVSGFKVYSLGEENSTNNSTGQSRAVIAAAARRRDNSHNEYYYEEAEHERRVRKRRARLVVAVEEAFTHIKRLQEEEQKNPREVMDPREAAQAIFASMARAMQKYLRTTKQQPYHTMESILQHLEFCITHDMTPKAFLERYLAAGPTIQYHKERWLAKQWTLVSEEPVTNGLKDGIVFLLKRQDFSLVVSTKKVPFFKLSEEFVDPKSHKFVMRLQSETSV
On to B1, for which the binding result in assay [2] is listed as “binds”.

B2: NDP52, endogenous in mouse bone marrow-derived macrophages (protein, UniProt A2A6M5 1-331)
chain: MDQCPIPTLLEHGNFSQVLFNNVEKFYAPRGDIMCYYTLTEKFIPRRKDWIGIFKVGWKTTQEYYTFMWAPLPKDQNKDSATQQEIQFKAYYLPKDVERYQFCYVDEDGLVRGTSVPFQFCPDPDEDIMVVINKEKVEEMEQLSEELYQQNQELKDKYADLHEQLQRKQVALEATQRVNKTLEHKVEEKASWEKEKASWEEEKASWEEEKASWEEEKASWEEEKASWEEEKASWEEEKASWEEEKASWEEEKASWEEEKASWEEEKASWEEEKASWEEEKASWEEEKASWEKEKASWEEEKASWEKEKAPWEVEKAPWKEVKAYWWNDLHR
Take B2: the binding entry in assay [2] is “binds”.

B3: IKKβ, endogenous in mouse bone marrow-derived macrophages (enzyme, UniProt O88351 1-757)
chain: MSWSPSLPTQTCGAWEMKERLGTGGFGNVIRWHNQATGEQIAIKQCRQELSPKNRNRWCLEIQIMRRLNHPNVVAARDVPEGMQNLAPNDLPLLAMEYCQGGDLRRYLNQFENCCGLREGAVLTLLSDIASALRYLHENRIIHRDLKPENIVLQQGEKRLIHKIIDLGYAKELDQGSLCTSFVGTLQYLAPELLEQQKYTVTVDYWSFGTLAFECITGFRPFLPNWQPVQWHSKVRQKSEVDIVVSEDLNGAVKFSSSLPFPNNLNSVLAERLEKWLQLMLMWHPRQRGTDPQYGPNGCFRALDDILNLKLVHVLNMVTGTVHTYPVTEDESLQSLKTRIQENTGILETDQELLQKAGLVLLPDKPATQCISDSKTNEGLTLDMDLVFLLDNSKINYETQITPRPPPESVSCILQEPKRNLSFFQLRKVWGQVWHSIQTLKEDCNRLQQGQRAAMMSLLRNNSCLSKMKNAMASTAQQLKAKLDFFKTSIQIDLEKYKEQTEFGITSDKLLLAWREMEQAVEQCGRENDVKHLVERMMALQTDIVDLQRSPMGRKQGGTLDDLEEQARELYRKLREKPRDQRTEGDSQEMVRLLLQAIQSFEKKVRVIYTQLSKTVVCKQKALELLPKVEEVVSLMNEDERTVVRLQEKRQKELWNLLKIACSKVRGPVSGSPDSMNVSRLSHPGQLMSQPSSACDSLPESDKKSEELVAEAHALCSRLESALQDTVKEQDRSFTTLDWSWLQMEDEERCSLEQACD
B3: in assay [3], the binding entry is “no binding”.

B4: IKKα, endogenous in mouse bone marrow-derived macrophages (enzyme, UniProt Q60680 1-745)
chain: MERPPGLRPGAGGPWEMRERLGTGGFGNVSLYQHRELDLKIAIKSCRLELSSKNRERWCHEIQIMKKLDHANVVKACDVPEELNFLINDVPLLAMEYCSGGDLRKLLNKPENCCGLKESQILSLLSDIGSGIRYLHENKIIHRDLKPENIVLQDVGGKTIHKIIDLGYAKDVDQGSLCTSFVGTLQYLAPELFENKPYTATVDYWSFGTMVFECIAGYRPFLHHLQPFTWHEKIKKKDPKCIFACEEMTGEVRFSSHLPQPNSLCSLIVEPMESWLQLMLNWDPQQRGGPIDLTLKQPRCFALMDHILNLKIVHILNMTSAKIISFLLPCDESLHSLQSRIERETGINTGSQELLSETGISLDPRKPASQCVLDGVRGCDSYMVYLFDKSKTVYEGPFASRSLSDCVNYIVQDSKIQLPIIQLRKVWAEAVHYVSGLKEDYSRLFQGQRAAMLSLLRYNANLTKMKNTLISASQQLKAKLEFFRKSIQLDLERYSEQMTYGISSEKMLKAWKEMEEKAIHYSEVGVIGYLEDQIMSLHTEIMELQKSPYGRRQGDLMESLEQRAIDLYKQLKHRPPDHLYSDSTEMVKIIVHTVQSQDRVLKELFGHLSKLLGCKQKIIDLLPKVEVALSNIKEADNTVMFMQGKRQKEIWHLLKIACTQSSARSLVGSSLEGTVTPPVSAWLPPTLADREHPLTCVVTPQDGETLAQMIEENLNCLGHLSTIIREANEDQSSSLMSLDWSWLAE
On to B4, for which the binding result in assay [3] is on record as “no binding”.
